Assay results taken from PubChem BioAssay AID1963576 (National Center for Advancing Translational Sciences (NCATS), 2024).
The whole screen tested about 46,000 compounds, of which about 60 (0.1%) were called active. Another 3% or so got no clear call; they are omitted. The call rests on the fitted dose curve; in most records, active means well fitted inhibition curve with a large enough effect; inconclusive means small, poorly fitted or top-dose-only effect; inactive means no such curve, though single readings can be large or run the other way. This is one part of the list.

test: Primary qHTS assay for Inhibitors of ovarian cancer metastasis using an organotypic tumor microenvironment (TME) model.; further: nearly all actives have a fitted effect of over 65% in size;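 on activity change, negative = inhibition: plate controls were DMSO wells for no effect and tomatine positive control wells for full effect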; conditions: SKOV3ip1-GFP adhesion/invasion on 3D omental model, fluorescence; series mostly up to 45.8 µM; activity change, negative = inhibition: at the top concentration
Summary of the method: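 qHTS, 4-pt dose (0.36-46 umol/L); SKOV3ip1-GFP, 1,200 cells/well, no FBS; primary omental fibroblast/mesothelial co-culture 48 h pre-grown; 2 h RT + 16 h 37 C; PBS wash, 4% PFA; GFP count 488/509 nm.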

| Structure (SMILES) | activity change, negative = inhibition | outcome |
| --- | --- | --- |
| COc1ccc(OC)c(CNCc2c(C(=O)O)n(Cc3ccccc3)c3cc(OC)ccc23)c1 | inactive: -1.68% |  |
| Cc1cc(NC(=O)C2CCCN(S(=O)(=O)c3cccc4nonc34)C2)ccc1Br (stereo unspecified) |  | inactive |
| Clc1ccc(CSc2nc(NCCc3ccccc3)c3ccccc3n2)cc1 | inactive: 16.5% |  |
| CCOc1ccccc1CNC(=O)CCCN1C(=O)CCn2nc(-c3cccn3C)cc21 | inactive: -3.14% |  |
| Cc1ccc(-c2cc(C(F)(F)F)n3nc(C(=O)Nc4ccc(C#N)cc4)cc3n2)cc1 | inactive: 3.29% |  |
| CCOC(=O)c1c(C)[nH]c(C)c1S(=O)(=O)N1CCCC(C(=O)N2CCN(c3cc(C)ccc3C)CC2)C1 (stereo unspecified) | inactive: -0.545% |  |
| CCc1ccc(-n2nc(C)c3c(C)cc(=O)n(CC(=O)Nc4ccc(OC)c(OC)c4)c32)cc1 | inactive: 2.69% |  |
| Cc1ccc(CNC(=O)C2CCN(S(=O)(=O)c3ccc4c(c3)oc(=O)n4C)CC2)cc1 | inactive: 4% |  |
| CCC(CC)C(=O)Nc1ccccc1C(=O)OCc1cc(=O)n2nc(C3CCCCC3)sc2n1 | inactive: 2.71% |  |
| COc1ccc(Cl)cc1N(C)C(=O)Cn1cnc2sc(C)c(S(=O)(=O)N3CCN(c4ncccn4)CC3)c2c1=O | inactive: -4.24% |  |
| Cc1ccc(C)c(CN2C(=O)c3ccccc3S(=O)(=O)c3ccc(C(=O)N4CCOCC4)cc32)c1 |  | inactive |
| CCOc1ccc(CNC(=O)Cn2ncc3c(=O)oc4ccc(C)cc4c32)cc1 | inactive: 26.6% |  |
| O=S(=O)(c1cccs1)N1CCN(c2ccc(Cl)cc2)CC1 | inactive: -0.713% |  |
| COc1ccc(Cl)cc1NC(=O)[C@H]1O[C@@H]2OC(C)(C)O[C@@H]2[C@H]2OC(C)(C)O[C@H]21 | inactive: -0.42% |  |
| COc1ccc(C(=O)N2CCCCC2CCN2CCCCC2)cc1 (stereo unspecified) | inactive: -13% |  |
| CCOc1ccccc1NC(=O)Cn1nnc2sc3c(c2c1=O)CCC(C(C)(C)C)C3 (stereo unspecified) |  | inactive |
| NS(=O)(=O)c1ccc(CCNc2nc3c(-c4cccc(F)c4)nnn3c3ccc(Cl)cc23)cc1 |  | inactive |
| COC(=O)c1cc(NC(=O)CN(c2ccccc2)S(=O)(=O)N(C)C)ccc1Cl | inactive: 9.8% |  |
| CCN1CCN(C(=O)c2ccc3c(c2)N(Cc2cc(C)ccc2C)C(=O)c2ccccc2S3=O)CC1 (stereo unspecified) |  | inactive |
| COc1ccc(NC(=O)Cn2cc(C(=O)C3CC3)c3ccccc32)cc1 | inactive: -10.1% |  |
| O=C(CN1C(=O)C2(SCC(=O)N2c2cccc(Cl)c2)c2ccccc21)NC1CCCCC1 (stereo unspecified) |  | inactive |
| CCOC(=O)N1CCN(C(=O)CN(c2ccc(C)cc2C)S(=O)(=O)c2ccccc2)CC1 | inactive: 0.358% |  |
| CCOC(=O)c1c(C)[nH]c(C)c1S(=O)(=O)N(C)CC(=O)N1CCN(c2ccccc2OC)CC1 |  | inactive |

| Structure (SMILES) | activity change, negative = inhibition | outcome |
| --- | --- | --- |
| Cc1cc(C)c(/C=C/c2onc(C)c2S(=O)(=O)N2CCC(C(=O)NCc3ccco3)CC2)c(C)c1 |  | inactive |
| CCCCN(CCCC)S(=O)(=O)c1ccc2oc(C(=O)NCc3ccccc3)c(C)c2c1 | inactive: 4.83% |  |
| O=C(CCCCn1c(=O)[nH]c2ccsc2c1=O)N1CCN(c2cccc(Cl)c2)CC1 |  | inactive |
| COc1cccc(OC)c1C(=O)Nc1ccc2c(c1)CCCN2S(=O)(=O)c1ccc(C)cc1 | inactive: 3.67% |  |
| O=C(COCc1cc(-c2ccco2)on1)Nc1ccc(OC(F)(F)F)cc1 | inactive: 2.86% |  |
| Cc1ccc(-c2nc3c(cnn3-c3ccccc3)c(=O)n2-c2ccc(Cl)cc2)cc1 | inactive: 2.95% |  |
| CCc1nn(CC(=O)NCc2cccc(OC)c2)c(=O)c2cc3cc(F)ccc3n12 | inactive: -1.28% |  |
| Cc1nn(CC(=O)N2CCN(c3ccccc3)CC2)c(=O)c2cccn12 |  | inactive |
| O=C(CNS(=O)(=O)c1ccc(Br)s1)N1CCN(c2ccccc2F)CC1 | inactive: 16.3% |  |
| Cc1ccc(-n2ncc3c(NCCC4=CCCCC4)ncnc32)cc1C | inactive: 34.7% |  |
| Cc1oc(-c2ccc(Cl)cc2)nc1Cn1c(=O)cc(-c2ccccc2)c2c(C)nn(C)c21 |  | inactive |
| CSc1nc2c([nH]c3ccccc32)c(=O)n1-c1ccc(F)cc1 | inactive: 1.31% |  |
| Cn1c(C(=O)NCc2cccc(F)c2)cc2cc(S(=O)(=O)N3CCCCC3)ccc21 | inactive: -2.21% |  |
| COc1cccc(-c2nc(C(N)=O)c3c(n2)n(-c2ccc4c(c2)OCO4)c(=O)n3C)c1OC | inactive: -3.93% |  |
| CCc1ccc(NC(=O)c2ccc(CN3C(=O)C(C)=C(c4ccc(C)cc4)S3(=O)=O)cc2)cc1 | inactive: 3.58% |  |
| COc1ccc(-c2onc(C)c2C)cc1S(=O)(=O)N1CCC(C)CC1 |  | inactive |
| CC(=O)c1cc(-c2ccccc2)n(CCC(=O)Nc2cc(C)cc(C)c2)c1C | inactive: 2.16% |  |
| CCOc1ccc(-c2cc(C(F)(F)F)c(C#N)c(SCC(=O)Nc3ccccc3)n2)cc1 | inactive: 0.381% |  |
| CCOc1ccccc1NC(=O)CSc1cc(=O)n(CC)c2ccccc12 |  | inactive |
| O=C(Cn1cc(S(=O)(=O)Cc2ccc(F)cc2)c2ccccc21)NCc1ccccc1 |  | inactive |
| COc1ccccc1CCNC(=O)c1cccn1-c1nnc(N2CCCCC2)s1 | inactive: -1.64% |  |
| COc1ccc2c(c1)CC[C@H]1[C@@H]2CC[C@]2(C)[C@@H](NCCCCCCN3C(=O)C=CC3=O)CC[C@H]12 | inactive: 0.496% |  |
| Nc1nc(-c2nn(Cc3ccccc3F)c3ncccc23)nc(N)c1N1CCOCC1 | inactive: -7.94% |  |
